The results in this text go back to PubChem BioAssay AID1508624 (National Center for Advancing Translational Sciences (NCATS), 2021).

The whole screen tested about 48,000 compounds, of which about 120 (0.25%) were called active. Roughly 4% stayed inconclusive and do not appear here. Calls come from the whole dose curve; as a rule, active = well fitted activation curve with a large enough effect; inconclusive = small, poorly fitted or top-dose-only effect, or another doubt; inactive = no such curve, though single readings can be large or run the other way. Some of the results follow.

The nature of the experiment: Primary qHTS for Identification of Small Molecule Activators of Huntingtin-Antisense Promoter Activity. Note: nearly all actives have a fitted effect of over 55% in size. Particulars: HEK293 HTT-AS promoter firefly luciferase reporter, 24 h; series mostly up to 57.5 µM; activity change, positive = activation: at the top concentration. The method, boiled down:
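HEK293 luciferase promoter-reporter cells (2,500/well) plated 24 h, then compounds added at up to 57.5 uM final for 24 h at 37 °C. Firefly luminescence by Dual-Glo, normalized to vehicle (0%) and zero RLU (-100%).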
(Quantitative high-throughput screening tests each substance at several concentrations.)
Consider `COc1ccc(Cl)cc1NC(=O)C(C)N1Cc2ccccc2C1=O` (configuration not stated), for which the “activity change, positive = activation” value is inactive: -4.74%. `CCOc1cc(CNC(=O)C(NS(=O)(=O)c2cccs2)C(C)C)cc(OCC)c1OCC` (configuration not stated): the “activity change, positive = activation” value is inactive: 11.9%. On to `O=C(Cn1c(SCc2cccc(F)c2)nc2ccncc21)Nc1ccc(Cl)cc1F`, for which the “activity change, positive = activation” value was inactive: -11.3%. With `COc1ccc(NCc2cccn2-c2nnc(N3CCOCC3)s2)c(OC)c1`, the “activity change, positive = activation” value was inactive: 9.45%. As for `O=C(NNc1ncnc2c1cnn2-c1ccccc1)c1ccccc1`, the “activity change, positive = activation” value was inactive: 14.4%. With `COc1ccc(C(=O)Nc2ccc3nc(N4CCCCC4)cc(C)c3c2)c(OC)c1` the figure was inactive: 7.42%. The same measure for `Cc1cn2c(=O)cc(COc3cccc(NC(=O)c4cccc(F)c4)c3)nc2s1`: inactive: -10.1%; for `COc1ccc(N2CCN(S(=O)(=O)CCNC(=O)Cc3ccc(-c4ccccc4)cc3)CC2)cc1`: inactive: -7.93%. The same measure for `CN[C@@H]1C[C@H]2O[C@@](C)([C@H]1OC)n1c3ccccc3c3c4c(c5c6ccccc6n2c5c31)C(=O)N[C@H]4O`: inactive: -55.5%; for `Cc1ccc(C(CC(=O)Nc2ccc(C)cc2C)N2Cc3ccccc3C2=O)cc1` (configuration not stated): inactive: -36.2%. With `CCOC(=O)c1c(NC(C)=O)c2c3c(sc2n1Cc1cccc(Cl)c1)CCCC3`, the “activity change, positive = activation” value is inactive: -12%. The same measure for `CCCN(C(=O)CCn1cnc2onc(-c3ccc(F)cc3)c2c1=O)c1ccccc1C`: inactive: -33.9%. With `CCOC(=O)c1c(-c2ccccc2)csc1NC(=O)c1cc(-c2cccc(OC)c2)on1` the figure was inactive: -11.9%; with `Cc1ccc(Cl)cc1N1CCN(C(=O)Cn2nc(C)n3c(cc4sccc43)c2=O)CC1`, inactive: -19.6%. The same measure for `Cc1cc(C)cc(C(=O)Nc2c3c(nn2-c2ccccc2C)CS(=O)(=O)C3)c1`: inactive: -9.36%. Consider `Cc1ccc(C(=O)Nc2nnc(SCc3cc(=O)n4ccc(C)cc4n3)s2)cc1`, for which the “activity change, positive = activation” value was inactive: 15.2%. As to `Cc1cc(C)cc(NC(=O)Cn2nnc(C(=O)NCc3ccco3)c2N)c1`, the “activity change, positive = activation” value is inactive: -16.9%. In the case of `O=C(CN1C(=O)COc2ccc(S(=O)(=O)N3CCCCCC3)cc21)N1CCN(c2ccccc2)CC1`, the “activity change, positive = activation” value was inactive: -21.6%.

Regarding `CCC(=O)N1c2nc(C(C)C)nn2C2(CCCCC2)[C@@H]2CCCC[C@@H]21`, the “activity change, positive = activation” value is inactive: 2.51%. With `CC(=O)c1ccc(N2CCN(c3ccc(NC(=O)c4cccs4)cc3C(=O)O)CC2)cc1` the figure was inactive: 14.4%. Regarding `CC(C(=O)NCc1ccccc1Cl)n1ccc2cc(S(=O)(=O)N3CCCCC3)ccc21` (configuration not stated), the “activity change, positive = activation” value was inactive: -29.3%. With `Cc1ccc(-n2ncc(C(=O)NCCCN3CCCCC3)c2C2CCN(C(=O)OC(C)(C)C)CC2)c(C)c1` the figure was inactive: -6.03%. The same measure for `Cc1ccc(NC(=O)CSc2nnc3nc(C)cc(C)n23)cc1`: inactive: -15.7%.

`CCc1cccc(C)c1NC(=O)CCCn1c(=O)c2cccn2c2cccnc21`: the “activity change, positive = activation” value was inactive: -0.393%.

For `CCOC(=O)c1ccccc1NC(=O)NC(C)c1c(-n2cccc2)sc(C)c1C` (configuration not stated), the “activity change, positive = activation” value was inactive: -26.8%. The same measure for `Cc1ccc(C)c(NC(=O)CN2C(=O)c3cccc4cccc2c34)c1`: inactive: -16%. On to `O=c1c2ccccc2n2c(-c3ccccc3O)nnc2n1Cc1ccc(F)cc1`, for which the “activity change, positive = activation” value was inactive: -6.1%. On to `Cc1cccc(Cn2ccn(Cc3ccc(Cl)cc3)c(=O)c2=O)c1`, for which the “activity change, positive = activation” value is inactive: -5.62%. `CCN(CC)C(=O)c1sc(NC(=O)c2nc3ncccn3n2)c(C(=O)OC)c1C`: the activity change, positive = activation was inactive: -7.34% [at 11.5 µM, percent change from vehicle, -100% = no light]. As for `Cc1ccc(S(=O)(=O)c2cnc(SCC(=O)Nc3cccc(Cl)c3)nc2N)cc1C`, the “activity change, positive = activation” value was inactive: 12.9%. With `CCN(CC)C(=O)Cn1cc(SCC(=O)Nc2cccc(F)c2)c2ccccc21` the figure was inactive: -15.4%; with `COc1ccc(C(CC(=O)O)NC(=O)c2cc3ccccc3oc2=O)cc1OC` (configuration not stated), inactive: -4.92%. As to `Oc1ccc(Nc2nc3ccccc3n3cnnc23)cc1`, the “activity change, positive = activation” value is inactive: 20%.

For the compound `Cc1cccc(Cn2c(=O)n(Cc3ccc(C(=O)NC4CCN(Cc5ccccc5)CC4)cc3)c(=O)c3ccccc32)c1`, the “activity change, positive = activation” value is inactive: -14.2%. The same measure for `CCOCCCNC(=O)CN1C(=O)COc2ccc(S(=O)(=O)N3CCCCCC3)cc21`: inactive: -4.04%; for `CCOC(=O)c1cnc2c(C)cc(C)cc2c1Nc1cccc(C(=O)O)c1`: inactive: -6.44%; for `Cc1ccc(C2c3c(-c4cc(C)ccc4O)n[nH]c3C(=O)N2Cc2ccco2)cc1` (configuration not stated): inactive: -6.83%. As for `O=C(Nc1cccc2cccnc12)c1ccccc1[N+](=O)[O-]`, the “activity change, positive = activation” value is inactive: 23.2%. The same measure for `CCCCn1c(SCC(=O)Nc2cccc(OC)c2)nc2c(sc3ccccc32)c1=O`: inactive: 5.87%; for `COc1ccccc1N1CCN(C(=O)C2CCN(S(=O)(=O)c3c(C)noc3/C=C/c3ccc(C)cc3)CC2)CC1`: inactive: -26.3%; for `COc1cccc(Cn2c(=O)n(CC3CCC(C(=O)N4CCCCC4)CC3)c(=O)c3sccc32)c1` (configuration not stated): inactive: -43.4%.

Take `Cc1cccc(Cc2cnc(NC(=O)C3Cc4ccc(C)cc4C(=O)O3)s2)c1` (configuration not stated): the “activity change, positive = activation” value was inactive: -1.36%. The same measure for `CCOC(=O)N1CCN(Cc2nc3cc(NC(C)=O)ccc3n2C(C)C)CC1`: inactive: -30%. For `Cc1cc(C)cc(-n2c(SCC(=O)NCc3ccco3)nc3c([nH]c4ccccc43)c2=O)c1`, the “activity change, positive = activation” value was inactive: -32.5%. With `CC(C)NC(=O)CCn1c(SCc2c(F)cccc2Cl)nc2c(sc3ccccc32)c1=O` the figure was inactive: -6.02%; with `COc1ccc(NC(=O)NCCc2c(C)nn(C)c2C)c(OC)c1`, inactive: 0.849%; with `Cc1nnc2c(N3CCN(c4ccccc4F)CC3)nc3ccccc3n12`, inactive: -11.2%.
